Out of some 420,000 compounds screened, about 50,000 (12%) were called active. This list was built around the results that the source calls inconclusive (neither active nor inactive); the mix of calls is not that of the screen. Calls follow the shape of the dose curve; as a rule, active = well fitted inhibition curve with a large enough effect; inconclusive = small, poorly fitted or top-dose-only effect; inactive = flat fitted curve, though single readings scatter. Potencies of inconclusive entries are left out as doubtful fits.
Experiment: qHTS for Inhibitors of human tyrosyl-DNA phosphodiesterase 1 (TDP1): qHTS in cells in presence of CPT; also: nearly all actives have a fitted effect of over 55% in size
Details: chicken DT40 Tdp1-/-;hTDP1 cells + 20 nM CPT, ATP luminescence, 48 h; activity change, negative = growth inhibition: at 46.2 µM (top of the series)
Description: Human tyrosyl-DNA phosphodiesterase 1 (TDP1) is a novel repair gene, and we propose to use it as a new target for anticancer drug development. TDP1 is not an essential protein, but under treatment with topoisomerase I poison (camptothecin: CPT), TDP1 works as a critical factor for cell survival. To directly identify novel TDP1 inhibitors active in a cellular environment, we have knocked-out the Tdp1 gene in chicken DT40 cells (Tdp1-/-) and generated a complemented counterpart cells that contains a stable transfection of the human TDP1 gene (Tdp1-/-;hTDP1 cells). For the primary screen, Tdp1-/-;hTDP1 cells will be exposed to small molecules in the presence or absence of CPT, and their growth kinetics will be evaluated after 48 hours by measuring ATP activity. […] The hit compounds will then be evaluated in the presence or absence of CPT using Tdp1-/- cells. […] In tertiary assays, biochemical gel-based assays will be used to assess whether the hit compounds specifically target TDP1. To this end, we have screened this cell line against the MLSMR in two primary screens. In one screen we add CPT and in the other we screen in the absence of CPT; this AID represents the screen where CPT was present. NIH Chemical Genomics Center [NCGC] NIH Molecular Libraries Probe Centers Network [MLPCN] MLPCN Grant: MH095538 Assay Submitter (PI): Yves Pommier, NCI
DT40-hTDP1 cells with 20 nM Camptothecin (add 20 microL of 1 mM CPT stock in 1 L of cell culture medium) were dispensed at 400 cells/5microL/well in tissue culture treated 1536-well white wall/solid bottom assay plates (Greiner Bio-One North America, NC, U.S.A.) using a Multidrop Combi 8 channel dispenser (Thermo Fisher, Waltham, MA, USA). 23 nL compounds and controls were transferred using the pin tool (Kalypsys, San Diego, CA, USA) to the assay plates. The assay plates were then incubated at 37 masculineC for a minimum 48 hr. Three microL of Cell Titer Glo solution was added to the plates and incubated at RT in dark for 30 min. Luminescence was read using ViewLux (Perkin Elmer) with 1 sec exposure slow speed, high gain and 2x binning.
% is scaled to controls: 0 for no effect and ±100 for the full control effect; potency is read from the fitted curve at half-maximal effect; tags tell the direction and shape of the fitted curve.

| Structure (SMILES) | Potency | activity change, negative = growth inhibition |
| --- | --- | --- |
| C#Cc1ccc(C(=O)NCc2ccc(N3CCCC3=O)cc2)cc1 | inconclusive [inhibitor, single point] | – |
| Cc1ccc(N2CC(C(=O)Nc3ccc(Cl)cc3Cl)CC2=O)cc1 (stereo unspecified) | inactive | – |
| COc1cc(C(=O)NC(C)C2CC3CCC2C3)cc(OC)c1OC (stereo unspecified) | inconclusive [inhibitor, single point] | – |
| CCN1C(=O)NC(c2cc(Br)ccc2OC)C(C(=O)OC)=C1C (stereo unspecified) | inconclusive [inhibitor, single point] | – |
| NS(=O)(=O)c1cc(Cl)c(NC(=O)COC(=O)c2ccccn2)c(Cl)c1 | inactive | – |
| O=C1CSC(=Nc2ccc(Cl)cc2)N1 | inactive | – |
| COc1ccccc1CNC(=O)CCCn1c(=O)c2ccccc2n(Cc2ccccc2F)c1=O | active: 9.2 µM | – |
| O=C(COC(=O)COc1ccc2c(c1)CCC2)Nc1ccccc1 | inactive | – |
| COc1ccc(C(C)=O)cc1COC(=O)c1ccc(C)c(S(=O)(=O)N2CCOCC2)c1 | inconclusive [inhibitor, partial curve, poor fit] | – |
| CCOC(=O)N1CCN(Cc2c(F)cccc2Cl)CC1 | inconclusive [inhibitor, single point] | – |
| CN(C(=O)c1ccco1)c1nc(-c2ccccc2)cs1 | inconclusive [inhibitor, single point] | – |
| COC(=O)c1[nH]c2cc(OC)ccc2c1NC(=O)CCN1CCN(c2cccc(C)c2C)CC1 | inconclusive [inhibitor, single point] | – |
| CCOC(=O)N1CCN(C(=O)COc2cccc3c2CCN(Cc2ccccc2C)C3=O)CC1 | inconclusive [inhibitor, single point] | – |
| O=C1Nc2ccccc2O/C1=C\c1c(F)cccc1Cl | inconclusive [inhibitor, single point] | – |
| COc1cc(/C=N/NC(=O)C(Cc2c[nH]c3ccccc23)NC(=O)OCC(C)C)cc([N+](=O)[O-])c1OCc1ccccc1 (stereo unspecified) | inactive | – |
| CCCCCN(C(=O)CCC(=O)OCc1ccc(Cl)cc1Cl)c1c(N)n(CCCC)c(=O)[nH]c1=O | inconclusive [inhibitor, single point] | – |
| Nc1c(C(=O)Nc2ccc(F)cc2)sc2nc(-c3ccco3)ccc12 | inconclusive [inhibitor, single point] | – |
| CCn1c(=O)cc(SCC(=O)N2CCN(c3cc(C)ccc3C)CC2)c2ccccc21 | active: 16.4 µM | – |
| COc1ccc(S(=O)(=O)/N=C2/C=CC(=O)C(C)=C2C)cc1 | active: 1.84 µM | – |
| CC1CCC(NC(=O)C2CC(=O)N(c3ccc(Cl)cc3)C2)CC1 (stereo unspecified) | inactive | – |
| COc1ccc(NC(=O)CCCC(=O)c2ccccc2)c(OC)c1 | inactive | – |
| COc1ccc(Cc2c(-c3ccccc3)nc3ccc(Cl)cn23)c(C)c1 | inconclusive [inhibitor, single point] | – |
| O=C(CCc1ccccc1)NC(=S)Nc1cccc(Br)c1 | inactive | – |
| O=C(CNc1ccc2ccccc2c1)N/N=C/c1cc2ccccc2nc1Cl | inconclusive [inhibitor, single point] | – |

| Structure (SMILES) | Potency | activity change, negative = growth inhibition |
| --- | --- | --- |
| O=C(CSc1nnc(NC(=O)c2ccccc2[N+](=O)[O-])s1)NCc1ccco1 | inactive | – |
| COc1ccccc1C(=O)NNC(=O)c1ccc(O)cc1 | inactive | – |
| COc1ccc(/C=N/N2CCN(C3c4ccccc4-c4ccccc43)CC2)cc1O | inconclusive [inhibitor, single point] | – |
| CCN(CC)S(=O)(=O)c1cc(NC(=O)CO/N=C(\N)c2ccccc2Cl)ccc1C | inconclusive [inhibitor, single point] | – |
| Cc1nnc(SC(C)C(=O)N(C)C2CCCCC2)n1N (stereo unspecified) | inactive | – |
| Clc1ccccc1-c1nnc2sc(-c3ccncc3)nn12 | inconclusive [inhibitor, single point] | – |
| CCOc1ccccc1CNC(=O)c1cnc2sc(N3CCC(C)CC3)nn2c1=O | inactive | – |
| COc1ccc2oc(=O)c(C(=O)Nc3ccccc3C)cc2c1 | inconclusive [inhibitor, single point] | – |
| Cc1ccc2cc(CN(CC3CCCO3)C(=S)Nc3ccccc3)c(=O)[nH]c2c1 (stereo unspecified) | inconclusive [inhibitor, single point] | – |
| COc1ccc(-c2ccc(C(=O)Nc3ccc(C(C)C)cc3)c3occc23)c(C)c1 | inconclusive [inhibitor, single point] | – |
| O=C(CSc1nnc(-c2ccccc2)o1)N1CCCc2ccccc21 | inconclusive [inhibitor, single point] | – |
| CCN(CC)C1CCN(C(=O)c2cnn(-c3nccc(-c4ccco4)n3)c2C(C)C)C1 (stereo unspecified) | – | inactive: -1.08% [at 9.04 µM] |
| COc1ccccc1-c1nccc(-n2ccnc2)n1 | inactive | – |
| CN(Cc1cc(Br)cc(Br)c1N)C1CCCCC1 | inconclusive [inhibitor, single point] | – |
| N#CCCn1cc(C(N)=O)c(-c2ccc3ccccc3c2)n1 | inconclusive [inhibitor, single point] | – |
| COc1ccc(C2C(C(C)=O)=C(O)C(=O)N2c2nccs2)c(OC)c1 (stereo unspecified) | inactive | – |
| CN(C)Cc1csc(Nc2ccc(C(F)(F)F)cn2)n1 | active: 25.9 µM | – |
| N#CC1=C(N)OC2=C(CC/C2=C\c2ccccc2)C1c1ccccc1 (stereo unspecified) | active: 13 µM | – |
| CCOC(=O)c1c(NC(=O)Cc2ccccc2)sc2c1CCN(C)C2 | inconclusive [inhibitor, single point] | – |
| Cc1nc(-c2ccc(Cl)cc2)sc1C1(C)CC(c2ccncc2)=NO1 (stereo unspecified) | inconclusive [inhibitor, single point] | – |
| Cn1c(=O)c(C(=O)Nc2ccccc2S(N)(=O)=O)c(O)c2ccccc21 | inconclusive [inhibitor, single point] | – |
| CCc1c(C)nc(SCCOc2ccc(OC)cc2)[nH]c1=O | inconclusive [inhibitor, single point] | – |
| CCCCCCCCCCS(=O)(=O)N/N=C/c1ccc([N+](=O)[O-])cc1 | inconclusive [inhibitor, partial curve] | – |
| Cc1ccc(C2=NC3(CCCCC3)N=C2SCC(=O)Nc2ccc3c(c2)OCCO3)cc1 | active: 20.6 µM | – |

| Structure (SMILES) | Potency | activity change, negative = growth inhibition |
| --- | --- | --- |
| CCc1ccc(NC(=O)C2CCCN(S(=O)(=O)c3ccc4c(c3)CC(C)N4C(C)=O)C2)cc1 (stereo unspecified) | active: 16.4 µM | – |
| CCN(CC)C(=O)Cn1cc(SCC(=O)Nc2ccc(C)cc2)c2ccccc21 | inconclusive [inhibitor, single point] | – |
| O=C(NC(CC(=O)N1CCN(c2ccccc2)CC1)c1ccccc1)c1ccccc1 (stereo unspecified) | inconclusive [inhibitor, single point] | – |
| Cc1nc(N2N=C3/C(=C/c4ccc(F)cc4)CCCC3C2c2ccc(F)cc2)sc1C(=O)N(C)C (stereo unspecified) | inconclusive [inhibitor, single point] | – |
| O=C1CCCc2c1cc(C(=O)Nc1ccc(Cl)cn1)c(=O)n2-c1ccccc1 | inactive | – |
| Cc1ccccc1C(=O)N(C)c1ccccc1C(=O)NCc1ccccc1 | inactive | – |
| O=C(NC1CCCCC1)C(c1ccc(C(F)(F)F)cc1)n1c(=O)c(-c2cc3ccccc3[nH]2)nc2ccccc21 (stereo unspecified) | active: 14.6 µM | – |
| O=C(O)c1ccc(CNc2ccccc2C(=O)O)cc1 | inactive | – |
| CCN1CCN(C(=O)c2cc(NC(=O)COC)cc3nc(-c4ccncc4)n(C)c23)CC1 | inactive | – |
| O=C(NCCO)/C(=C\c1ccc([N+](=O)[O-])o1)NC(=O)c1ccccc1 | inconclusive [inhibitor, partial curve, poor fit] | – |
| CC(=O)c1cccc(CN2CCN(Cc3ccc(C)cc3)C(CCO)C2)c1 (stereo unspecified) | – | inconclusive: -30.5% [inhibitor] |
| CN(C)c1ccc(-c2nn3c(-c4cccnc4)nnc3s2)cc1 | inactive | – |
| CCC(=O)Oc1cccc(C(=O)Nc2ccc(-c3nnc(-c4ccco4)o3)cc2)c1 | active: 6.51 µM | – |
| O=C(CSc1nc2cc([N+](=O)[O-])ccc2n1-c1ccc(F)cc1)NC1CCS(=O)(=O)C1 (stereo unspecified) | inactive | – |
| NC(=O)c1sc2nc(-c3cccnc3)ccc2c1N | inconclusive [inhibitor, single point] | – |
| O=C(NCc1ccccc1)C1Cc2c(-c3ccc4c(c3)OCO4)ccnc2O1 (stereo unspecified) | active: 0.58 µM | – |
| CCOC(=O)N1CCc2c(sc3c2c(=O)n(-c2ccc(Cl)cc2)c(=O)n3CC(=O)Nc2ccccc2)C1 | inconclusive [inhibitor, single point] | – |
| COc1ccc(-c2cc(C)no2)cc1S(=O)(=O)N1CCN(c2ccc([N+](=O)[O-])cc2)CC1 | inconclusive [inhibitor, single point] | – |
| C[C@@H]1CC=C[C@H]2[C@H]1C(=O)N(Cc1ccccc1)[C@H]2c1ccc(-c2ccoc2)cc1F | inconclusive [inhibitor, single point] | – |
| C=CCn1c(SCC(=O)Nc2cc(C)on2)nc2c([nH]c3ccccc32)c1=O | inconclusive [inhibitor, full curve] | – |
| COc1ccc(C)cc1NC(=O)C(NS(=O)(=O)c1cccc2nsnc12)c1ccccc1 (stereo unspecified) | inconclusive [inhibitor, single point] | – |
| Cc1ccc(C)c(N2CCN(C(=O)Cn3nc(Cc4cccnc4)c4ccccc4c3=O)CC2)c1 | inconclusive [inhibitor, single point] | – |
| Cc1ccc(Nc2nc(-c3cccnc3)cs2)cc1Cl | inconclusive [inhibitor, single point] | – |
